# Where “and” joins values, the source holds several entries; their conditions need not be identical. Equal entries are not always repeated. Hit rate of the full screen: of about 200,000 compounds, about 4,500 (2.2%) were called active. Inconclusive results, whose numbers are uncertain, are shown with a selection of clear calls. Calls come from the whole dose curve; as a rule, active = well fitted inhibition curve with a large enough effect; inconclusive = small, poorly fitted or top-dose-only effect, or effect the other way; inactive = flat fitted curve, though single readings scatter. A potency beside an inconclusive call is a rough fit, not a confirmed value.
# Biological target: Cruzipain (Trypanosoma cruzi) (UniProt P25779)
# Assay: qHTS Assay for Promiscuous and Specific Inhibitors of Cruzain (without detergent); note: nearly all actives have a fitted effect of over 40% in size;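 for max response, negative = inhibition: plate controls were enzyme without inhibitor for no effect and buffer without enzyme for full effect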
# Conditions: purified cruzain, Z-FR-AMC fluorescence, no detergent
# Summary of the method: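 Detergent-free condition (0.00005% Triton X-100) in acetate buffer pH 5.5 with DTT. 1.5 nM enzyme and compound were pre-mixed 15 min, then 2 uM Z-FR-AMC substrate added; reaction progress from fluorescence change between first and third reads (60 s).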
# Potency is the fitted concentration of half-maximal effect; tags give direction and shape of the fitted curve.
# Chain of UniProt P25779 (P25779 whole entry, looked up): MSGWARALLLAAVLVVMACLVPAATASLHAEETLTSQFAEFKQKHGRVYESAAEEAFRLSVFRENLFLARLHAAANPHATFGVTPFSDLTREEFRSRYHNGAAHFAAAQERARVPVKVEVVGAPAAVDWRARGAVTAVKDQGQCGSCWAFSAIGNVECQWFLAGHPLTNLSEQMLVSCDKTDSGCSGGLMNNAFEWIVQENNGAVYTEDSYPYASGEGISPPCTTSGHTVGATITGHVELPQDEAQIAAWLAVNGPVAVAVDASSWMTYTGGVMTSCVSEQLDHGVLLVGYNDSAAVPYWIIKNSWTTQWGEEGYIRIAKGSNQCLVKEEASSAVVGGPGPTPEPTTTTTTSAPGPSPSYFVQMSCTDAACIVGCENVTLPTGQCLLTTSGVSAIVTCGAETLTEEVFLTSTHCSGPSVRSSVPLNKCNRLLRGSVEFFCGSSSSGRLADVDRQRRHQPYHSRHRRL
SMILES,"max response, negative = inhibition",Potency
O=C(Nc1ccccc1OCc1cc(=O)n2ccccc2n1)c1cccc(Br)c1,inactive: 12.1%,
COc1cc2c(cc1OC)C(COc1ccc3c(C)cc(=O)oc3c1)N(C(=O)c1cccc(OC)c1OC)CC2 (stereo not given),,"inconclusive: 6.31 µM [activator, full curve]"
O=C(O)CSc1nnc(CNc2cccc(C(F)(F)F)c2)n1Cc1ccco1,,"inconclusive: 25.1 µM [activator, single point]"
COc1ccc(/C=N/NC(=O)c2ccc(Cl)cc2)cc1Cn1cc(Cl)cn1,,"inconclusive: 31.6 µM [inhibitor, single point]"
CC(C)CN(C(=O)COC(=O)c1ccccc1Sc1ccccc1C#N)C1CCS(=O)(=O)C1 (stereo not given),,"inconclusive: 39.8 µM [activator, single point]"
Cc1cccc(C)c1OCC(=O)Nc1cccc(-c2nnc(-c3ccccc3)o2)c1,,"inconclusive: 39.8 µM [inhibitor, single point]"
CCCCNc1nnc(SCC(=O)N2CCN(S(=O)(=O)c3ccc4ccccc4c3)CC2)s1,,"inconclusive: 39.8 µM [inhibitor, single point]"
CCc1cc(C(=O)OC)c(NC(=O)C2CC(=O)NN2Cc2ccccc2)s1 (stereo not given),,"inconclusive: 31.6 µM [activator, single point]"
COc1ccc(CCNC(=O)CCCn2c(=O)c3ccccc3n(CC(=O)Nc3cccc(C)c3)c2=O)cc1OC,,"inconclusive: 31.6 µM [activator, single point]"
CCOC(=O)c1sc(NC(=O)COC(=O)Cn2cnc3ccccc32)c(C(=O)OCC)c1C,,"inconclusive: 25.1 µM [activator, partial curve]"
CCCCCC(=O)Nc1nc(C)c(-c2csc(Nc3cc(OC)ccc3OC)n2)s1,,"inconclusive: 31.6 µM [inhibitor, single point]"
COc1ccc(C2=NN(C(=O)CSc3cn(C)c4ccccc34)C(c3ccc(OC)cc3)C2)cc1 (stereo not given),,"inconclusive: 31.6 µM [inhibitor, single point]"
COc1ccc(-n2ncc(C(=O)N3CCN(Cc4ccccc4)CC3)c2C2CCN(C(=O)OC(C)(C)C)CC2)cc1,inactive: -10.8%,
CCOc1cc(C(=O)N(Cc2nc(-c3ccc(C)cc3)no2)C(C)C)cc(OCC)c1OCC,,"inconclusive: 31.6 µM [activator, partial curve]"
CC(=O)Nc1ccc(S(=O)(=O)NCc2ccc3c(c2)CCN3C(C)=O)cc1,inactive: 4.17%,
CCOc1ccc(-c2c(C)nn3c(C)c(C(=O)NCc4cccc(OC)c4)cnc23)cc1OCC,inactive: 2.88%,
COc1ccc2nc(/N=C(\N)NC(=O)N3c4ccccc4Sc4ccccc43)nc(C)c2c1,,"inconclusive: 39.8 µM [inhibitor, single point]"
CC(C)(C)C(=O)Nc1ccc(-c2nc3ccccc3s2)cc1,inactive: 2.42%,
CCOC(=O)c1c(NC(=O)C2C3CCC(O3)C2C(=O)O)sc(C)c1-c1ccc(F)cc1 (stereo not given),,"inconclusive: 6.31 µM [activator, full curve, poor fit]"
Cc1cc([N+](=O)[O-])nn1CC(=O)NNC(=S)Nc1ccc(Cl)cc1,inactive: 6.81%,

SMILES,"max response, negative = inhibition",Potency
Cc1cccc(NC(=O)c2ccc([N+](=O)[O-])o2)n1,inactive: -11.3%,
CN1CCN(c2ncc3nc(-c4cccc(C#N)c4)c(=O)n(C[C@H]4CCCO4)c3n2)CC1,,"inconclusive: 5.01 µM [activator, single point]"
CCOC(=O)c1sc2nc(CC(=O)OC)nc(NCc3ccco3)c2c1C,,"inconclusive: 39.8 µM [activator, single point]"
COc1ccccc1CNc1ccc(-c2nc(-c3ccccn3)no2)cc1[N+](=O)[O-],,"inconclusive: 6.31 µM [inhibitor, full curve]"
COC(=O)[C@@]1(Cc2ccc(OC)cc2)[C@H]2c3cc(C(=O)N4CCCC4)n(Cc4ccc(C)o4)c3C[C@H]2CN1C(=O)c1ccccc1,,"inconclusive: 25.1 µM [activator, partial curve] and inconclusive: 20 µM [activator, partial curve]"
O=C1NCCCC2c3c(cc(Br)c(O)c3Br)OC12N1CCOCC1 (stereo not given),inactive: -0.624%,
c1ccc(COc2ccc(-c3csnn3)cc2)cc1,,"inconclusive: 39.8 µM [inhibitor, single point]"
COc1ccc(C2=C(C(C)=O)Sc3nnc(-c4ccc(C)cc4)n3N2C(C)=O)cc1OC,,"inconclusive: 3.16 µM [activator, single point]"
COc1ccc(NC(=O)C(=O)NCCc2sc(-c3ccc(Cl)cc3)nc2C)cc1,inactive: -2.9%,
COC(=O)[C@@]1(Cc2ccc(F)cc2)[C@H]2c3cc(C(=O)N4CCCC4)n(CCc4c[nH]c5cc(F)ccc45)c3C[C@H]2CN1C(=O)c1ccccc1,,"inconclusive: 31.6 µM [activator, single point]"
CC(C)c1nc(N(C)S(C)(=O)=O)nc(-c2ccc(F)cc2)c1/C=C/C(O)CC(O)CC(=O)O (stereo not given),,"inconclusive: 39.8 µM [activator, single point]"
COc1cc(-c2c(C#N)c(N)nc3c2c(C)nn3-c2ccc(C)c(C)c2)cc(OC)c1OC,,"inconclusive: 25.1 µM [activator, single point]"
O=C(Nc1cccc2ccccc12)/C(=C/c1cccc([N+](=O)[O-])c1)NC(=O)c1cccs1,,"inconclusive: 39.8 µM [inhibitor, single point]"
COc1ccc(CC(=O)NCCc2sc(-c3ccc(Cl)cc3)nc2C)cc1OC,,"inconclusive: 39.8 µM [activator, single point]"
O=C(NC12CC3CC(CC(C3)C1)C2)c1ccc(-c2cccc(Cl)c2)o1,,"inconclusive: 39.8 µM [inhibitor, single point]"
COc1cc(-c2nc3ccccn3c2Nc2ccccc2C)ccc1O,inactive: -0.016%,
Clc1ccc(OCCOCCOc2cccc3cccnc23)c(Br)c1,,"inconclusive: 39.8 µM [activator, single point]"
CCOC(=O)c1cnc2c(cnn2CC)c1NN=C(C)C,,"inconclusive: 39.8 µM [activator, single point]"
COCCn1nnnc1CN(CCc1ccc(OC)c(OC)c1)Cc1cc2ccc(C)cc2[nH]c1=O,,"inconclusive: 39.8 µM [activator, single point]"
Cc1ccc(NC2c3ncccc3C(=O)N2C2CCCCC2)cc1C (stereo not given),inactive: -3.29%,

SMILES,"max response, negative = inhibition",Potency
CCOc1ccccc1-c1noc(CSc2nnc(-c3ccccc3)n2-c2cccc(C)c2)n1,inactive: -5.67%,
COc1ccc(/C=C/C(=O)OCC(=O)Nc2ccc(C)cc2)cc1S(=O)(=O)N1CCOCC1,,"inconclusive: 39.8 µM [activator, single point]"
Cc1ccc(C(=O)C(C(=O)/C=C/c2ccccc2)=C2SCCCS2)cc1,,active: 25.1 µM
COc1ccc(OC)c(C2c3c(-c4ccc(Br)cc4)n[nH]c3C(=O)N2c2ccc(Cl)cc2)c1 (stereo not given),,active: 15.8 µM
CCOC(=O)c1c(C)n(-c2ccccc2)c2ccc(OC(=O)c3cccc(Cl)c3)cc12,,"inconclusive: 5.01 µM [inhibitor, single point]"
COc1ccc2[nH]c3nc(SCC(=O)Nc4ccc5c(c4)OCO5)nnc3c2c1,,"inconclusive: 39.8 µM [inhibitor, single point]"
Cc1ccc(S(=O)(=O)/N=C(\N)Nc2nc(C)c3cc(C)c(C)cc3n2)cc1,,"inconclusive: 39.8 µM [inhibitor, single point]"
Cc1ccc(Cn2nnc3c(=O)[nH]c(C4CCN(S(=O)(=O)c5ccccc5)CC4)nc32)cc1,,"inconclusive: 39.8 µM [activator, single point]"
Cc1nc(N2CCCC2)c2c(C(=O)Nc3ccc(Br)cc3F)c(C)oc2n1,,"inconclusive: 39.8 µM [activator, single point]"
CN(C)S(=O)(=O)c1cccc(C(=O)OCC(=O)c2ccc3c(c2)NC(=O)CO3)c1,inactive: 5.91%,
COc1ccc(-c2cc(C(F)(F)F)nc(SCC(=O)N(C)Cc3cnn(C)c3C)n2)cc1OC,,"inconclusive: 39.8 µM [activator, single point]"
CCOc1ccc(NC(=O)c2ccc3snnc3c2)cc1,inactive: 0.69% and inactive: -0.224%,
NCCCCNS(=O)(=O)c1ccc2c(Cl)cccc2c1,inactive: 4.08%,
Cn1c(=O)n(C)c2cc([N+](=O)[O-])c(N3CCN(C(=O)c4ccc(Cl)cc4)CC3)cc21,,"inconclusive: 39.8 µM [activator, single point]"
O=C(O)Cc1sc(N/N=C\c2ccccc2)nc1-c1ccccc1,,"inconclusive: 10 µM [inhibitor, partial curve]"
CN(C)c1ccc(-n2cccc2/C=C2/SC(=Nc3ccc(F)cc3)NC2=O)cc1,,active: 10 µM
Oc1c(C(c2ccccc2Cl)N2CCN(Cc3ccccc3)CC2)sc2nc(-c3ccco3)nn12 (stereo not given),,"inconclusive: 31.6 µM [activator, single point]"
CCc1ccc(NC(=O)CSc2ccc(-c3cccs3)nn2)cc1,,"inconclusive: 31.6 µM [inhibitor, single point]"
C=CCOc1c(Br)cc(C2C3=C(CCCC3=O)N(C)C3=C2C(=O)CCC3)cc1OCC,,"inconclusive: 31.6 µM [activator, single point]"
CCN(CC)CCCNC(=O)CSc1nc(-c2ccc(OC)cc2)cc(C(F)(F)F)n1,,"inconclusive: 39.8 µM [inhibitor, single point]"
